Enrichment ratio data for 153 variants are collected here from a collection of fitness landscapes (doi:10.1126/science.1257360).

The list shows a part of the results.

The chains are these.
B1: PhoQ; a variant is named by its letters at X, in order, P23837 (parent)
chain: MKKLLRLFFPLSLRVRFLLATAAVVLVLSLAYGMVALIGYSVSFDKTTFRLLRGESNLFYTLAKWENNKLHVELPENIDKQSPTMTLIYDENGQLLWAQRDVPWLMKMIQPDWLKSNGFHEIEADVNDTSLLLSGDHSIQQQLQEVREDDDDAEMTHSVAVNVYPATSRMPKLTIVVVDTIPVELKSSYMVWSWFIYVLSANLLLVIPLLWVAAWWSLRPIEALAKEVRELEEHNRELLNPATTRELTSLVRNLNRLLKSERERYDKYRTTLTDLTHSLKTPLXXLQXXLRSLRSEKMSVSDAEPVMLEQISRISQQIGYYLHRASMRGGTLLSRELHPVAPLLDNLTSALNKVYQRKGVNISLDISPEISFVGEQNDFVEVMGNVLDNACKYCLEFVEISARQTDEHLYIVVEDDGPGIPLSKREVIFDRGQRVDTLRPGQGVGLAVAREITEQYEGKIVAGESMLGGARMEVIFGRQHSAPKDE

Variants of B1 are the subject of the experiment. Put plainly: enrichment ratio after two sorts for PhoP signalling (ratio (wild type AVST 3.29)); higher = more functional. The conditions noted are these: with PhoP (E. coli).
Turning to IIHM, the enrichment ratio was no more than 0.25.

For the variant NGQE, the enrichment ratio is no more than 0.25.

Consider IIER, for which the enrichment ratio is no more than 0.25.

In the case of TMAV, the enrichment ratio came out at 5.82.

Regarding MFIF, the enrichment ratio is no more than 0.25.

EAWV: the enrichment ratio is no more than 0.25.

As for ATCY, the enrichment ratio was 5.66.

In the case of HRNA, the enrichment ratio is no more than 0.25.

As to YWKN, the enrichment ratio was no more than 0.25.

In the case of GKTR, the enrichment ratio is no more than 0.25.

As for ITTH, the enrichment ratio is no more than 0.25.

Turning to RMKL, the enrichment ratio was no more than 0.25.

Consider PREH, for which the enrichment ratio was no more than 0.25.

On to STWN, for which the enrichment ratio is no more than 0.25.

As to KLPL, the enrichment ratio was no more than 0.25.

VMVM: the enrichment ratio was no more than 0.25.

For the variant NYMQ, the enrichment ratio is no more than 0.25.

Consider SGRN, for which the enrichment ratio is no more than 0.25.

As to IVRW, the enrichment ratio is no more than 0.25.

In the case of RFAL, the enrichment ratio was no more than 0.25.

As to QHPA, the enrichment ratio was no more than 0.25.

On to WRIN, for which the enrichment ratio was no more than 0.25.

As for IMSL, the enrichment ratio was no more than 0.25.

For the variant TQAH, the enrichment ratio was found to be 13.3.

NPRY: the enrichment ratio was no more than 0.25.

Turning to IVEK, the enrichment ratio was no more than 0.25.

Take SVID: the enrichment ratio was no more than 0.25.

Take WMMA: the enrichment ratio was no more than 0.25.

Consider SEHP, for which the enrichment ratio is no more than 0.25.

Consider RAIM, for which the enrichment ratio is no more than 0.25.

As for ERYG, the enrichment ratio is no more than 0.25.

QHCS: the enrichment ratio is no more than 0.25.

VDVK: the enrichment ratio is no more than 0.25.

In the case of MAWM, the enrichment ratio came out at 8.69.

As to KCAH, the enrichment ratio was no more than 0.25.

With RPKE, the enrichment ratio is no more than 0.25.

Turning to IKTD, the enrichment ratio was no more than 0.25.

In the case of MANS, the enrichment ratio was no more than 0.25.

Turning to RQKH, the enrichment ratio was no more than 0.25.

In the case of WLLY, the enrichment ratio is no more than 0.25.

In the case of WFFW, the enrichment ratio is no more than 0.25.

For PKKD, the enrichment ratio is no more than 0.25.

Consider ANGC, for which the enrichment ratio is 8.49.

In the case of DAHW, the enrichment ratio is no more than 0.25.

LKFH: the enrichment ratio was no more than 0.25.

As to LDKD, the enrichment ratio is no more than 0.25.

For PTCL, the enrichment ratio turned out to be 0.341.

For the variant FHIS, the enrichment ratio is no more than 0.25.

RKFP: the enrichment ratio is no more than 0.25.

Turning to VMMC, the enrichment ratio was no more than 0.25.

In the case of GIMK, the enrichment ratio is no more than 0.25.

RPTK: the enrichment ratio was no more than 0.25.

As for EYGF, the enrichment ratio was no more than 0.25.

Take NLRF: the enrichment ratio is no more than 0.25.

For the variant FCPR, the enrichment ratio was no more than 0.25.

Turning to DMYC, the enrichment ratio was no more than 0.25.

On to MCKP, for which the enrichment ratio is no more than 0.25.

As to DLIS, the enrichment ratio is no more than 0.25.

In the case of VPWQ, the enrichment ratio was no more than 0.25.

For FGEE, the enrichment ratio was no more than 0.25.

In the case of TGQE, the enrichment ratio turned out to be 24.5.

Regarding GNEV, the enrichment ratio was no more than 0.25.

Regarding YFGY, the enrichment ratio is no more than 0.25.

On to KTGK, for which the enrichment ratio was no more than 0.25.

With LPGD, the enrichment ratio was no more than 0.25.

For the variant HYEK, the enrichment ratio is no more than 0.25.

Turning to AEVR, the enrichment ratio worked out at 1.77.

For the variant RPCV, the enrichment ratio is no more than 0.25.

For HHDN, the enrichment ratio was no more than 0.25.

Consider GWYG, for which the enrichment ratio is no more than 0.25.

As to HWPI, the enrichment ratio was no more than 0.25.

FENK: the enrichment ratio was no more than 0.25.

In the case of PPHE, the enrichment ratio was no more than 0.25.

Turning to QDLF, the enrichment ratio is no more than 0.25.

Turning to PKDC, the enrichment ratio is no more than 0.25.

As to YCLG, the enrichment ratio came out at 8.9.

On to WIPH, for which the enrichment ratio was no more than 0.25.

Turning to LQFF, the enrichment ratio was no more than 0.25.

For GYVM, the enrichment ratio was no more than 0.25.

Turning to DWGR, the enrichment ratio was no more than 0.25.

With TFRH, the enrichment ratio was no more than 0.25.

As for SFQI, the enrichment ratio was no more than 0.25.

As for DHMC, the enrichment ratio is no more than 0.25.

Turning to AQWN, the enrichment ratio is no more than 0.25.

Take IPPI: the enrichment ratio was no more than 0.25.

Consider KICP, for which the enrichment ratio is no more than 0.25.

For the variant FRQP, the enrichment ratio was no more than 0.25.

As for AMGG, the enrichment ratio is 6.47.

For FSLY, the enrichment ratio is 3.99.

Turning to RQFT, the enrichment ratio was no more than 0.25.

As to LEAA, the enrichment ratio was no more than 0.25.

YLVH: the enrichment ratio was no more than 0.25.

In the case of GILA, the enrichment ratio was found to be 11.3.

Consider SGCA, for which the enrichment ratio was 6.95.

In the case of YCSD, the enrichment ratio is no more than 0.25.

Take NQHP: the enrichment ratio was no more than 0.25.

Take PDER: the enrichment ratio was no more than 0.25.

Take GMKC: the enrichment ratio was no more than 0.25.

For the variant PTWS, the enrichment ratio is no more than 0.25.

As to NQEL, the enrichment ratio was no more than 0.25.

Consider SQCL, for which the enrichment ratio was determined as 12.1.

Take ADFG: the enrichment ratio is no more than 0.25.

As for LWCS, the enrichment ratio is no more than 0.25.

Regarding KCWI, the enrichment ratio is no more than 0.25.

With YGVC, the enrichment ratio was no more than 0.25.

As for FRNL, the enrichment ratio was no more than 0.25.

With AHYR, the enrichment ratio was no more than 0.25.

For the variant SFMS, the enrichment ratio amounted to 1.29.

Take YYLR: the enrichment ratio is no more than 0.25.

In the case of EAKT, the enrichment ratio was no more than 0.25.

As to GPYL, the enrichment ratio was no more than 0.25.

Turning to FMRD, the enrichment ratio was no more than 0.25.

Take REGC: the enrichment ratio is no more than 0.25.

Turning to AHVP, the enrichment ratio is no more than 0.25.

Take HREC: the enrichment ratio is no more than 0.25.

Regarding VQIM, the enrichment ratio is no more than 0.25.

LMGN: the enrichment ratio is no more than 0.25.

For the variant DCDR, the enrichment ratio is no more than 0.25.

With THPM, the enrichment ratio was no more than 0.25.

For RIKP, the enrichment ratio was no more than 0.25.

As for KKQA, the enrichment ratio was no more than 0.25.

On to IQYA, for which the enrichment ratio was no more than 0.25.

As for PSTT, the enrichment ratio was no more than 0.25.

As to LREL, the enrichment ratio is no more than 0.25.

Regarding FSER, the enrichment ratio is no more than 0.25.

Regarding KPKK, the enrichment ratio was no more than 0.25.

Consider LEHA, for which the enrichment ratio was no more than 0.25.

For ANFI, the enrichment ratio was no more than 0.25.

SIYY: the enrichment ratio was no more than 0.25.

For the variant NRWM, the enrichment ratio was no more than 0.25.

EVTF: the enrichment ratio is no more than 0.25.

On to QTCV, for which the enrichment ratio is no more than 0.25.

Take TMTY: the enrichment ratio turned out to be 12.9.

Consider HLVP, for which the enrichment ratio is no more than 0.25.

On to ESRI, for which the enrichment ratio is no more than 0.25.

With ICLR, the enrichment ratio is no more than 0.25.

Consider ANLH, for which the enrichment ratio turned out to be 13.

On to AMLS, for which the enrichment ratio was determined as 2.42.

For LMSS, the enrichment ratio was no more than 0.25.

Take WVNV: the enrichment ratio was no more than 0.25.

In the case of GVHH, the enrichment ratio is no more than 0.25.

For the variant SFTL, the enrichment ratio was 1.44.

On to RLIH, for which the enrichment ratio was no more than 0.25.

On to TCFY, for which the enrichment ratio was no more than 0.25.

As to LLQI, the enrichment ratio is no more than 0.25.

As for FQLM, the enrichment ratio was 1.74.

For PIQK, the enrichment ratio was no more than 0.25.

For MNRE, the enrichment ratio was no more than 0.25.

In the case of RIGI, the enrichment ratio is no more than 0.25.

Regarding DAGD, the enrichment ratio is no more than 0.25.

As to EHGG, the enrichment ratio is no more than 0.25.

In the case of RHRN, the enrichment ratio was no more than 0.25.

For RLEE, the enrichment ratio is no more than 0.25.
